From PubChem BioAssay AID504332 (National Center for Advancing Translational Sciences (NCATS), 2011)
“And” between values parts separate entries of the source, which are not always exact repeats. Equal entries are not always repeated. Screen size: about 350,000 compounds; about 31,000 (8.9%) were called active. Inconclusive results, whose numbers are uncertain, are shown with a selection of clear calls. Calls follow the shape of the dose curve; as a rule, active = well fitted inhibition curve with a large enough effect; inconclusive = small, poorly fitted or top-dose-only effect; inactive = no such curve, though single readings can be large or run the other way. Potencies beside an inconclusive call are fits to weak or partial responses and may not hold up.

Molecular target: Histone-lysine N-methyltransferase EHMT2 (Homo sapiens) (UniProt Q96KQ7)
Test: qHTS Assay for Inhibitors of Histone Lysine Methyltransferase G9a; also: nearly all actives have a fitted effect of over 75% in size
Settings: G9a H3K9 monomethylation, AlphaScreen, 2 h; activity, negative = inhibition: at 59 µM (top of the series) unless noted
Procedure, shortened: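 Step 1: enzyme (final 20 nM) with compound, 15 min RT. Step 2: substrate peptide 500 nM and SAM 20 uM, 2 h RT. Step 3: anti-H3K9me1 antibody and AlphaScreen beads, 10 min, then plate read.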
% is scaled to controls: 0 for no effect and ±100 for the full control effect; potency is read from the fitted curve at half-maximal effect; tags tell the direction and shape of the fitted curve.

Chain of UniProt Q96KQ7 (Q96KQ7 whole entry, looked up): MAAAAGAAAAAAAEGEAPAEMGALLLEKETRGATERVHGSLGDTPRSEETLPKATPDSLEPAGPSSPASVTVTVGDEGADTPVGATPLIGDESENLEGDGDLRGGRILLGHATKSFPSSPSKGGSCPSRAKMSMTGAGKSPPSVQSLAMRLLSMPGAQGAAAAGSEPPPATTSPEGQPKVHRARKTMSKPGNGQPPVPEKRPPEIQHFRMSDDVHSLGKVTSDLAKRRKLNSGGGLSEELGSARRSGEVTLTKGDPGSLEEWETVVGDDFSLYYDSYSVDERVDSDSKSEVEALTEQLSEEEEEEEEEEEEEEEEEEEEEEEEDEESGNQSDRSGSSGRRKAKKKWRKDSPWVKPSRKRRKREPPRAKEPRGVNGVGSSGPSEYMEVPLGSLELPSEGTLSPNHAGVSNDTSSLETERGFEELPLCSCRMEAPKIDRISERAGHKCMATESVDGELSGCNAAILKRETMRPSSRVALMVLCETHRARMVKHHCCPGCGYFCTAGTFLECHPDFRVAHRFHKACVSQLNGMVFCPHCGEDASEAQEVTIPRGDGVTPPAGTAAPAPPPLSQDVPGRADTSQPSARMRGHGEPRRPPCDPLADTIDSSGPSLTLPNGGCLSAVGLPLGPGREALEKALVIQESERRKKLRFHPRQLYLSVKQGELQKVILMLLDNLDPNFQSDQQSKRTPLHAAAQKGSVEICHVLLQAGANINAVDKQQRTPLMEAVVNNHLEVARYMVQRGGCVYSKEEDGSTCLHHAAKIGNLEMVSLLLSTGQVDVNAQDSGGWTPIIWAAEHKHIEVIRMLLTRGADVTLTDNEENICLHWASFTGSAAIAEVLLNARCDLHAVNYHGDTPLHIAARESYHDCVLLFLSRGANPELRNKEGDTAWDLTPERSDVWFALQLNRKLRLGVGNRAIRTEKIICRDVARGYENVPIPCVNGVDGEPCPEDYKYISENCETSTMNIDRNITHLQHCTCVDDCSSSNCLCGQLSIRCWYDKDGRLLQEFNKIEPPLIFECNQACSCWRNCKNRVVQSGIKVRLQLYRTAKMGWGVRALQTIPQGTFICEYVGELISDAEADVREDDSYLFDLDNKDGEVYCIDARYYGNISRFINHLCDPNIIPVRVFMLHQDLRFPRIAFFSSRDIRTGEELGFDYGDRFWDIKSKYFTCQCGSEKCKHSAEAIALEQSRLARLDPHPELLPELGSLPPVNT

SMILES	activity, negative = inhibition	Potency
COc1ccccc1C(=O)Nc1nnc(SCc2cc(=O)c3ccccc3[nH]2)s1	inactive: -9.11%	–
O=C1c2ccccc2C(=O)N1CCC(c1ccc(F)cc1)c1ccco1 (stereo unspecified)	inconclusive: -79.3% [inhibitor]	–
CCOC(=O)C1CCN(Cc2ccc(F)c(Br)c2)CC1	–	inconclusive: 28.2 µM [inhibitor, single point]
O=C(NCc1ccccc1Cl)C1CCCN1C(=O)NC1CCCCC1 (stereo unspecified)	–	inconclusive: 79.4 µM [inhibitor, single point]
COc1ccc(C2CC(c3cccs3)=Nc3ccccc3S2)cc1OC (stereo unspecified)	–	inconclusive: 28.2 µM [inhibitor, single point]
O=C(Cc1ccc(Cl)cc1)Nc1ccc(N2CCN(C(=O)c3ccco3)CC2)cc1	–	active: 7.94 µM
CCOC(=O)c1c(C)[nH]c(C(=O)CSc2nnc(-c3cccs3)n2Cc2ccccc2)c1C	inactive: 9.41% [at 102 µM]	–
COc1ccc2nc3sc(C(=O)NCCc4ccc(Cl)cc4)cc3cc2c1	–	inconclusive: 2.51 µM [inhibitor, full curve, poor fit]
Cc1cc(C)n2[nH]c(=O)c(N=Nc3cccc(Cl)c3)c2n1	inactive: 1.48%	–
c1ccc(-n2ncc3c(N4CCC5(CC4)OCCO5)ncnc32)cc1	–	inconclusive: 89.1 µM [inhibitor, partial curve, poor fit]
CCOc1ccc(C2C=C(c3ccccc3)Nc3nnnn32)cc1 (stereo unspecified)	–	active: 50.1 µM
CCS(=O)(=O)c1ncc(Cl)c(C(=O)Nc2ccc(S(=O)(=O)N(C)c3ccccc3)cc2)n1	–	active: 11.2 µM and active: 39.8 µM
Cc1ccc(/C=C/c2onc(C)c2S(=O)(=O)N2CCC(C(=O)N3CCN(C)CC3)CC2)cc1	inactive: -19.7% [at 102 µM]	–
O=C(Nc1ccc2oc(-c3ccc4ccccc4c3)nc2c1)c1cccs1	–	inconclusive: 20 µM [inhibitor, partial curve, poor fit]
O=C(N/N=C/c1ccc(-c2ccc(S(=O)(=O)Nc3ncccn3)cc2)o1)c1cc2ccccc2cc1O	inconclusive: -157% [inhibitor]	–
CCOC(=O)Cc1csc(NC(=S)NC(=O)c2cc(OC)c(OC)c(OC)c2)n1	inactive: 1.08%	–
CCOc1cccc2c1OC1(CCCCC1)N1N=C(c3cccnc3)CC21 (stereo unspecified)	–	inconclusive: 39.8 µM [inhibitor, single point]
COc1ccc(C(=S)N2CCCC2)cc1OC	inactive: 22.7%	–
Oc1ccc2ccccc2c1/C=N/c1nccs1	inconclusive: -77.7% [inhibitor] [at 0.501 µM]	–
Cc1nnc(NC(=O)C2CCN(c3nnnn3-c3ccccc3)CC2)s1	–	inconclusive: 50.1 µM [inhibitor, partial curve]
CN(C)c1ccc(/C=C/C(=O)c2ccc3c(c2)OCCO3)cc1[N+](=O)[O-]	–	inconclusive: 3.98 µM [inhibitor, partial curve, poor fit]
Cc1nc2c(ccc3c2ccc2nc(C)sc23)s1	–	inconclusive: 7.94 µM [inhibitor, full curve, poor fit]
Cc1cc(Cl)ccc1Oc1ncnc2oc(-c3ccccc3)cc12	inactive: 35.9% [at 0.501 µM]	–
O=C(Nc1cccc([N+](=O)[O-])c1)Nc1cccc([N+](=O)[O-])c1	–	inconclusive: 50.1 µM [inhibitor, partial curve]

SMILES	activity, negative = inhibition	Potency
O=C(Nc1ccc(F)cc1F)c1ccc(-n2cccn2)nc1	inactive: -2.63% [at 102 µM]	–
CC1CCCCC1NC(=O)CNC(=O)c1ccco1 (stereo unspecified)	inactive: 6.74%	–
Cc1ccc2c(c1)c(N=O)c(O)n2Cc1ccc(Cl)cc1	–	inconclusive: 44.7 µM [inhibitor, full curve, poor fit]
O=C(c1ccc(S(=O)(=O)Cc2ccccc2F)c([N+](=O)[O-])c1)N1CCCCCC1	–	inconclusive: 79.4 µM [inhibitor, single point]
COc1cc(/C=N/N=C(N)N)ccc1OCc1ccc(Cl)cc1	–	inconclusive: 28.2 µM [inhibitor, partial curve]
O=C(COc1ccc2oc3c(c2c1)CCCC3)Nc1cccc(Br)c1	–	inconclusive: 7.08 µM [inhibitor, partial curve]
CC1CCC(C(C)C)C(OC(=O)COC(=O)c2ccc(N)cc2)C1 (stereo unspecified)	–	inconclusive: 89.1 µM [inhibitor, single point]
CC(CC(=O)Nc1cccc(S(=O)(=O)N2CCCCC2)c1)c1ccccc1 (stereo unspecified)	–	inconclusive: 6.31 µM [inhibitor, single point]
Cc1ccc2c(c1)-c1c(ssc1=S)C(C)(C)N2C(=O)CSC1=NCCS1	inconclusive: -110% [inhibitor]	–
Cc1c(Cl)cccc1NC(=O)CNc1ccccc1F	–	inconclusive: 79.4 µM [inhibitor, single point]
CCOC(=O)/C(=N\Nc1ccccc1Cl)N1CC(C)OC(C)C1 (stereo unspecified)	inactive: 1.41%	–
CC(=O)N1c2ccc(S(=O)(=O)NCC3CCC(C(=O)Nc4cccc(C)n4)CC3)cc2CC1C (stereo unspecified)	inactive: 14.6% [at 102 µM]	–
COc1ccc(NC(=O)CCS(=O)(=O)c2cc3c4c(c2)CCN4C(=O)CC3)c(OC)c1	–	inconclusive: 31.6 µM [inhibitor, partial curve]
CC(CSc1nc2ccccc2s1)Cn1c(N2CCCC2)nc2c1c(=O)[nH]c(=O)n2C (stereo unspecified)	inconclusive: -65.8% [inhibitor]	–
CCOC(=O)C1=C(C)N=C2SC(C(=O)OC)=CC(=O)N2C1c1ccc(F)cc1 (stereo unspecified)	inconclusive: -98.6% [inhibitor]	–
O=C(NCCC(=O)N(Cc1ccco1)Cc1cccs1)c1ccc(Br)cc1	inactive: 15.2%	–
CCOc1cccc(OCCCCn2ccnc2)c1	–	inconclusive: 6.31 µM [inhibitor, single point]
O=C1COc2ccc(S(=O)(=O)N3CCc4ccccc43)cc2N1	inactive: 1.23% [at 102 µM]	–
COc1ccc(C(=O)/C=C/Sc2nc3ccccc3o2)cc1	–	inconclusive: 50.1 µM [inhibitor, partial curve]
O=C(NCCCN1CCC(Cc2ccccc2)CC1)c1ccc2nc(N3CCOCC3)sc2c1	–	inconclusive: 50.1 µM [inhibitor, partial curve]
COc1cc(C(=O)NCCc2sc(-c3ccc(C)cc3)nc2C)cc(OC)c1OC	inactive: 18.6%	–
COc1ccc(/C=N/N=C2/NC(=O)C(CC(=O)O)S2)cc1OCc1ccc(Cl)cc1Cl (stereo unspecified)	–	active: 79.4 µM
Cc1ccc(-n2cccc2/C=C2/C(=N)N3C(=NC2=O)SN=C3S(C)(=O)=O)cc1Cl	–	active: 50.1 µM
CCN(CC)c1ccc(C(=O)NNC(=O)CNC(=O)c2ccco2)cc1	–	inconclusive: 89.1 µM [inhibitor, partial curve, poor fit]

SMILES	activity, negative = inhibition	Potency
O=C(O)c1cccc(NC(=O)c2ccc(S(=O)(=O)c3ccccc3)cc2)c1	inactive: -8.17%	–
CN1CCN(Cc2nc3c(c(=O)[nH]c(=O)n3C)n2Cc2c(F)cccc2Cl)CC1	–	inconclusive: 56.2 µM [inhibitor, partial curve, poor fit]
O=C(COc1ccc(Cl)cc1)NCCCNC(=O)c1ccncc1	inactive: 0.479% [at 102 µM]	–
COC(=O)c1ccc(OC(=O)CCS(=O)(=O)c2ccc(C)cc2)cc1	–	active: 35.5 µM
CC1(C)N=C(N)N=C(N)N1c1ccc(OCCCOc2ccccc2)c(Cl)c1	–	inconclusive: 70.8 µM [inhibitor, partial curve, poor fit]
Cn1c(=O)c2cc(C(=O)NCCCN3CCN(c4ccc(F)cc4)CC3)sc2c2ccccc21	inactive: -48.9%	–
COc1cc(OC)c(C(=O)Nc2ccc(N(C)C)cc2)cc1OC	–	active: 4.47 µM
Cc1ccc(C(=O)c2oc3ccccc3c2NC(=O)COc2ccccc2C)cc1	inactive: 23.4%	–
COc1ccc(NC(=O)CSc2nc3ccccc3nc2N2CCOCC2)c(OC)c1	inactive: 17.5% [at 102 µM]	–
Cc1ccccc1CN1C(=O)c2ccccc2S(=O)c2ccc(C(=O)N3CCOCC3)cc21 (stereo unspecified)	inactive: -0.359%	–
CCNC(=S)N=Nc1c(O)n(Cc2ccc(Cl)cc2)c2ccccc12	–	inconclusive: 31.6 µM [inhibitor, single point]
O=[N+]([O-])c1cc(-c2nc(-c3ccccc3)no2)ccc1NCc1ccco1	–	inconclusive: 12.6 µM [inhibitor, partial curve]
COc1ccc(C(=O)/C=C/c2cn(CC(O)CN3CCCCCC3)c3ccccc23)cc1OC (stereo unspecified)	–	inconclusive: 15.8 µM [inhibitor, partial curve, poor fit]
COc1ccc(CNc2nc3c(c(=O)[nH]c(=O)n3C)n2Cc2ccccc2C)cc1	–	inconclusive: 89.1 µM [inhibitor, single point]
Cc1ccc(NC(=O)CN2C(=O)NC3(CCCCCCC3)C2=O)cc1C	–	active: 1.26 µM
COc1ccccc1N1CCN(c2nc(N)c(C#N)c(CC#N)c2C#N)CC1	–	active: 50.1 µM
Cc1ccc(C)c(N2CCN(CCN3CCCCC3)CC2)c1	–	inconclusive: 79.4 µM [inhibitor, partial curve, poor fit]
CC(=O)Nc1ccc(NC(=O)c2ccccc2S(=O)(=O)c2ccc([N+](=O)[O-])cc2)cc1	–	inconclusive: 79.4 µM [inhibitor, partial curve, poor fit]
CC1(C)Cc2c(cnn2-c2ccccc2)-c2c1c1ccccc1n2CC(O)CCl (stereo unspecified)	–	inconclusive: 28.2 µM [inhibitor, single point]
COc1ccccc1/C=C1\SC(=S)N(CCC(=O)N2CCN(C)CC2)C1=O	–	inconclusive: 50.1 µM [inhibitor, partial curve]
Cn1cc(/C=C2/SC(=O)N(CC(=O)Nc3ccc4c(c3)OCO4)C2=O)c2ccccc21	inactive: 25.7% [at 102 µM]	–
O=C(O)C1CC=CCC1C(=O)N1CCN(c2nc(-c3ccccc3)c3ccccc3n2)CC1 (stereo unspecified)	inconclusive: -79% [inhibitor]	–
CCC(=O)N1CCN(c2ccc(OC)cc2[N+](=O)[O-])CC1	inactive: -7.7%	–
